# Data reported in article PMC8326426, “Resveratrol-induced Sirt1 phosphorylation by LKB1 mediates mitochondrial metabolism” (The Journal of Biological Chemistry, 2021).
# By UniProt entry, the sequences of proteins in these tests, tags left out. Where a name states a change or a piece, a line headed by the entry shows the natural chain unless it says otherwise. Chains listed by the source or under a name are the forms on record and can include a tag or linker. Residues count along the entry.
# GFP-Sirt1 core domain, aa 234 to 510 (Q96EB6, residues 234-510): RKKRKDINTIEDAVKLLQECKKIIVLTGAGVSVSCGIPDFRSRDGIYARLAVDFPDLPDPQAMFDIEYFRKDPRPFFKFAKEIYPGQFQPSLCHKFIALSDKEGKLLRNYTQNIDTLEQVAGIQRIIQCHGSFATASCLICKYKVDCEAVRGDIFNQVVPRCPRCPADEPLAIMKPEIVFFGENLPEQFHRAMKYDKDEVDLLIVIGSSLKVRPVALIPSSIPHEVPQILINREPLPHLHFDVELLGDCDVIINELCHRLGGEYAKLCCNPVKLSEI
# GST-Sirt1 WT (C terminus), aa 511 to 747 (Q96EB6, residues 511-747): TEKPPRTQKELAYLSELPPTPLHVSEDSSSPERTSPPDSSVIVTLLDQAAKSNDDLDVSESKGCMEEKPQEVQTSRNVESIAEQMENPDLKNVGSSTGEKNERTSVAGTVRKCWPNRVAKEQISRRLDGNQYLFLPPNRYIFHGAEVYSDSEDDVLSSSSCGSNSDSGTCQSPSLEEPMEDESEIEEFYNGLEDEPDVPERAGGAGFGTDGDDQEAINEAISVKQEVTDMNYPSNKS
# FLAG-Sirt1 C terminus 3A mutant, aa 511 to 747 (Q96EB6, form named): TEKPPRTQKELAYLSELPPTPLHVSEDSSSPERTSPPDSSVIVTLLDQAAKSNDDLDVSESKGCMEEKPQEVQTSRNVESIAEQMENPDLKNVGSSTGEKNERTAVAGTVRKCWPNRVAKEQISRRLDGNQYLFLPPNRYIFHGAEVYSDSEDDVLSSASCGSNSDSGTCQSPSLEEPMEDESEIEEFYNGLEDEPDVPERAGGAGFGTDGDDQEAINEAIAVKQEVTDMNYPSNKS
# GST-Sirt1 C terminus ESA deletion mutant, aa 511 to 747 (Q96EB6, form named): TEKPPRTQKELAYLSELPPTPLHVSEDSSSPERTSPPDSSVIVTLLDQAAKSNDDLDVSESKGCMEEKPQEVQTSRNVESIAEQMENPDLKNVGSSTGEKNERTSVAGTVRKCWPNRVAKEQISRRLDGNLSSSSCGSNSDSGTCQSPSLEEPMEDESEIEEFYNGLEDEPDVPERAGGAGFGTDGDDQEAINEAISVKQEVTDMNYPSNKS
# GST-Sirt1 C terminus 3D mutant with ESA deletion, aa 511 to 747 (Q96EB6, form named): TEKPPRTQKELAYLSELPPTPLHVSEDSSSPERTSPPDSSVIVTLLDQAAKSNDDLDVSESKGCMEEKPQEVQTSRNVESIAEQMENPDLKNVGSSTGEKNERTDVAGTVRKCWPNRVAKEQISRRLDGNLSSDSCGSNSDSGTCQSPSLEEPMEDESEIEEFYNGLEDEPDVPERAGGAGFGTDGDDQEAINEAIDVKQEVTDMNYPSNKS
# GST-Sirt1 3D mutant (C terminus), aa 511 to 747 (Q96EB6, form named): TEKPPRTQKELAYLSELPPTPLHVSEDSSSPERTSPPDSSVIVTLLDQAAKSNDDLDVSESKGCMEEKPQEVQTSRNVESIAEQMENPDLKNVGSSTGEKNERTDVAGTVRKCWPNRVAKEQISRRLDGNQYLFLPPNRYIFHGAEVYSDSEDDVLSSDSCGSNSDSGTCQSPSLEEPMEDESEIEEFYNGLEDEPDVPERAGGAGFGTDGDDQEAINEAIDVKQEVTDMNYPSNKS
# Results are given in words; binding and its absence hold for the method and conditions named. In cells and extracts the contact can be indirect. Some results given as binding are weak or reduced against the parent protein; the word gives no strength. For part of these data: Where a sequence is shown, tags or fusion partners need not be part of it.
# T1: Sirt1, endogenous in C2C12 myotubes (mouse (endogenous in C2C12)) (UniProt Q923E4)
# T1 sequence: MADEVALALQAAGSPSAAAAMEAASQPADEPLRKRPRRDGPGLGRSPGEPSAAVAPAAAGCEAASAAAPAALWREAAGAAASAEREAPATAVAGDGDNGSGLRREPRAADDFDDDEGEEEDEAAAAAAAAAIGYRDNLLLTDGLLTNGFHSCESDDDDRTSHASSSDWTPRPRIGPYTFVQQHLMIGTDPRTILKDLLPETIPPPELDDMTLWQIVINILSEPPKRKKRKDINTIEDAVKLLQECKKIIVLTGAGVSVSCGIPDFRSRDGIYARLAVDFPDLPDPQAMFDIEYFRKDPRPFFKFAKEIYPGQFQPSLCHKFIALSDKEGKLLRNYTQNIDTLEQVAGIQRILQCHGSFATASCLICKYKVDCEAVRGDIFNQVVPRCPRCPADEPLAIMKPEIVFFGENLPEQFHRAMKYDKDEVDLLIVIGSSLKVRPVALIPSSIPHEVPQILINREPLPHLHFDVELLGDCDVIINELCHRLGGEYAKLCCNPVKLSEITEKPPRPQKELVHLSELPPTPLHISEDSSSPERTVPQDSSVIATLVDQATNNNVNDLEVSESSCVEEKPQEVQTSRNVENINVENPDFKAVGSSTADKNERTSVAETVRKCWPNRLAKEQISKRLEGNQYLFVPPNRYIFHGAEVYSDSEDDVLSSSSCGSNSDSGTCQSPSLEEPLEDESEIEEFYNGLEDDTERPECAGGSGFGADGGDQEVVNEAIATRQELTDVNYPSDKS
# T2: FLAG-LKB1 (UniProt Q15831)
# T2 sequence: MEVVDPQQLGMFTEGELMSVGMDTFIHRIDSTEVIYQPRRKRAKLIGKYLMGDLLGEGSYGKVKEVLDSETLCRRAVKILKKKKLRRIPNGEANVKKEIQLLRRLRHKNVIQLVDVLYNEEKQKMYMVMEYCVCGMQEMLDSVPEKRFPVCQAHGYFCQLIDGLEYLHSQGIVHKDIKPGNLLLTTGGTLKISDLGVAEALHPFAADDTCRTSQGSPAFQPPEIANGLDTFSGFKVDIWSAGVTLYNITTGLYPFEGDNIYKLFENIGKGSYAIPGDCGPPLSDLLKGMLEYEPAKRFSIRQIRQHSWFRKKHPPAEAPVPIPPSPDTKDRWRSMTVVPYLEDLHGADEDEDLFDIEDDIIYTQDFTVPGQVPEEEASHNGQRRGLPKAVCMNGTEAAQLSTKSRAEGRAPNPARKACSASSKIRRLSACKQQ
# B1: LKB1, endogenous in C2C12 myotubes (protein, UniProt Q9WTK7 1-436)
# chain: MDVADPEPLGLFSEGELMSVGMDTFIHRIDSTEVIYQPRRKRAKLIGKYLMGDLLGEGSYGKVKEVLDSETLCRRAVKILKKKKLRRIPNGEANVKKEIQLLRRLRHRNVIQLVDVLYNEEKQKMYMVMEYCVCGMQEMLDSVPEKRFPVCQAHGYFRQLIDGLEYLHSQGIVHKDIKPGNLLLTTNGTLKISDLGVAEALHPFAVDDTCRTSQGSPAFQPPEIANGLDTFSGFKVDIWSAGVTLYNITTGLYPFEGDNIYKLFENIGRGDFTIPCDCGPPLSDLLRGMLEYEPAKRFSIRQIRQHSWFRKKHPLAEALVPIPPSPDTKDRWRSMTVVPYLEDLHGRAEEEEEEDLFDIEDGIIYTQDFTVPGQVLEEEVGQNGQSHSLPKAVCVNGTEPQLSSKVKPEGRPGTANPARKVCSSNKIRRLSACKQQ
# B2: STRADα, endogenous in HEK293T cells (protein, UniProt Q7RTN6 1-431)
# chain: MSFLVSKPERIRRWVSEKFIVEGLRDLELFGEQPPGDTRRKTNDASSESIASFSKQEVMSSFLPEGGCYELLTVIGKGFEDLMTVNLARYKPTGEYVTVRRINLEACSNEMVTFLQGELHVSKLFNHPNIVPYRATFIADNELWVVTSFMAYGSAKDLICTHFMDGMNELAIAYILQGVLKALDYIHHMGYVHRSVKASHILISVDGKVYLSGLRSNLSMISHGQRQRVVHDFPKYSVKVLPWLSPEVLQQNLQGYDAKSDIYSVGITACELANGHVPFKDMPATQMLLEKLNGTVPCLLDTSTIPAEELTMSPSRSVANSGLSDSLTTSTPRPSNGDSPSHPYHRTFSPHFHHFVEQCLQRNPDARPSASTLLNHSFFKQIKRRASEALPELLRPVTPITNFEGSQSQDHSGIFGLVTNLEELEVDDWEF
# B3: MO25α, endogenous in HEK293T cells (protein, UniProt Q9Y376 1-341)
# chain: MPFPFGKSHKSPADIVKNLKESMAVLEKQDISDKKAEKATEEVSKNLVAMKEILYGTNEKEPQTEAVAQLAQELYNSGLLSTLVADLQLIDFEGKKDVAQIFNNILRRQIGTRTPTVEYICTQQNILFMLLKGYESPEIALNCGIMLRECIRHEPLAKIILWSEQFYDFFRYVEMSTFDIASDAFATFKDLLTRHKLLSAEFLEQHYDRFFSEYEKLLHSENYVTKRQSLKLLGELLLDRHNFTIMTKYISKPENLKLMMNLLRDKSRNIQFEAFHVFKVFVANPNKTQPILDILLKNQAKLIEFLSKFQNDRTEDEQFNDEKTYLVKQIRDLKRPAQQEA
# Tests used:
# [1] = target: FLAG-Sirt1 C terminus 3A mutant, aa 511 to 747 (human) (UniProt Q96EB6); experiment: co-IP; HEK293T cotransfected with FLAG-Sirt1 C terminus (WT or mutants) and HA-tagged core domain; lysates immunoprecipitated with anti-FLAG, immunoblot; lysis buffer 50 mM Tris-HCl pH 7.5, 120 mM NaCl, 0.2% NP-40, 1 mM EDTA, 1 mM DTT
# [2] = target: FLAG-Sirt1 C terminus ESA deletion mutant (WT ΔESA), aa 511 to 747 (human) (UniProt Q96EB6); experiment: as above
# [3] = target: FLAG-Sirt1 C terminus 3D mutant with ESA deletion (3D ΔESA), aa 511 to 747 (human) (UniProt Q96EB6); experiment: as above
# [4] = target: FLAG-Sirt1 C terminus 3D mutant, aa 511 to 747 (human) (UniProt Q96EB6); experiment: as above
# [5] = target: FLAG-Sirt1 C terminus (WT), aa 511 to 747 (human) (UniProt Q96EB6); experiment: as above
# [6] = target: GST-Sirt1 3D mutant (C terminus), aa 511 to 747 (human) (UniProt Q96EB6); experiment: pull-down; GST pull-down: GST-Sirt1 C terminus (WT or mutants) purified from E. coli incubated with lysates of HEK293T cells transfected with GFP-Sirt1 core domain; bound fraction immunoblotted; only the target purified
# [7] = target: GST-Sirt1 WT (C terminus), aa 511 to 747 (human) (UniProt Q96EB6); experiment: as above
# [8] = target: GST-Sirt1 C terminus ESA deletion mutant, aa 511 to 747 (human) (UniProt Q96EB6); experiment: as above
# [9] = target: GST-Sirt1 C terminus 3D mutant with ESA deletion, aa 511 to 747 (human) (UniProt Q96EB6); experiment: as above
# [10] = target: T1, Sirt1, endogenous in C2C12 myotubes (mouse (endogenous in C2C12)); experiment: co-IP; C2C12 myotubes, with or without 25 uM resveratrol for 6 h; lysates immunoprecipitated with antibody against Sirt1, immunoblot with anti-LKB1
# FLAG-LKB1 = target: T2, FLAG-LKB1; experiment: co-IP; HEK293T transfected with FLAG-LKB1 plasmid, treated with 25 uM resveratrol for 6 h; immunoprecipitated by anti-FLAG and eluted with 3xFLAG peptide; bound fraction blotted with anti-STRADα and anti-MO25α
molecule,measurement,setting,value
"HA-tagged Sirt1 core domain, aa 234 to 510 (from UniProt Q96EB6 234-510) (domain or fragment)",binding,[1],binds
same,binding,[2],no binding
same,binding,[3],no binding
same,binding,[4],binds
same,binding,[5],binds
"GFP-Sirt1 core domain, aa 234 to 510 (from UniProt Q96EB6 234-510) (domain or fragment)",binding,[6],binds
same,binding,[7],binds
same,binding,[8],no binding
same,binding,[9],no binding
B1,binding,[10],binds
B2,binding,FLAG-LKB1,binds
B3,binding,FLAG-LKB1,binds
